Reference: PubChem BioAssay AID686979 (National Center for Advancing Translational Sciences (NCATS), 2013)
Hit rate of the full screen: of about 420,000 compounds, about 50,000 (12%) were called active. Inconclusive means that the source gave no clear call. Such entries were picked first, then a sample of the others. Calls come from the whole dose curve; as a rule, active = well fitted inhibition curve with a large enough effect; inconclusive = small, poorly fitted or top-dose-only effect; inactive = flat fitted curve, though single readings scatter. No potency is given beside an inconclusive call; the fits are too rough.

assay: qHTS for Inhibitors of human tyrosyl-DNA phosphodiesterase 1 (TDP1): qHTS in cells in presence of CPT; conditions: chicken DT40 Tdp1-/-;hTDP1 cells + 20 nM CPT, ATP luminescence, 48 h; activity change, negative = growth inhibition: at 46.2 µM (top of the series) unless noted; note: nearly all actives have a fitted effect of over 55% in size
Method in brief: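 Chicken DT40 Tdp1-/- cells stably complemented with human TDP1 were seeded at 400 cells/well in medium containing 20 nM camptothecin, exposed to pin-transferred compounds, and grown at 37 °C for at least 48 hr. Viability was read as ATP luminescence.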
% is set by controls: 0 for no effect and ±100 for the full control effect; potency is the fitted concentration of half-maximal effect; tags give direction and shape of the fitted curve.

Question: For CCC(CC)C(=O)N(C)c1c(C)nc2c(OCc3ccccc3C(=O)OC)cccn12, which Potency is on record?
Answer: inconclusive [inhibitor, single point]

Question: With CCCn1c(C)cc(-c2csc(NC(=O)CCc3nc4ccccc4c(=O)[nH]3)n2)c1C as the molecule, how does the Potency read?
Answer: active: 23.1 µM

Question: For CCOc1ccc(-c2nc3scc(-c4cccs4)c3c(=O)[nH]2)cc1, which Potency is on record?
Answer: inconclusive [inhibitor, single point]

Question: With Cc1cc2c(N=NC(=O)CCc3ccccc3)c(O)[nH]c2cc1Br as the molecule, how does the Potency read?
Answer: inconclusive [inhibitor, single point]

Question: Which Potency does the source give for Cc1cccc(N/C=C/C(=O)c2cccs2)c1C here?
Answer: inactive

Question: With COc1ccc(NC(=O)C2(C)Cc3c(-c4ccc5c(c4)OCO5)ccnc3O2)cc1OC (stereo unspecified) as the molecule, how does the Potency read?
Answer: inconclusive [inhibitor, single point]

Question: Which Potency does the source give for Cc1ccccc1C(=O)NC(=S)NCCc1ccccc1 here?
Answer: inconclusive [inhibitor, single point]

Question: For Cc1ccc(/C(O)=C2/C(=O)C(=O)N(CCN3CCOCC3)C2c2cccs2)cc1 (stereo unspecified), which Potency is on record?
Answer: inconclusive [inhibitor, partial curve]

Question: Which Potency does the source give for CCc1ccc(NC(=O)CSc2nc3ccccc3c(=O)n2CCCN2CCC(C)CC2)cc1 here?
Answer: inconclusive [inhibitor, single point]

Question: Which Potency does the source give for CCC(C)(C)NC(=O)Nc1cc(Cl)ccc1OC here?
Answer: inconclusive [inhibitor, single point]

Question: With CC(S)C(=O)NCC(=O)O (stereo unspecified) as the molecule, how does the Potency read?
Answer: inconclusive [inhibitor, single point]

Question: Which Potency does the source give for CC(=O)N1CCc2ccc(S(=O)(=O)Nc3ccccc3Cl)cc21 here?
Answer: inconclusive [inhibitor, single point]

Question: With Cc1ccc2nc(C)c(Cl)c(=O)n2c1 as the molecule, how does the Potency read?
Answer: inactive

Question: Which Potency does the source give for Cc1cc(C)c2c(CN3CCN(C/C=C/c4ccccc4)CC3)cc(=O)oc2c1 here?
Answer: active: 29.1 µM

Question: For CC(=O)NN1C(=O)/C(=C2/Sc3ccc(Cl)cc3N2C)SC1=S, which Potency is on record?
Answer: inactive

Question: With Cc1ccc(C(=O)Nc2c(-c3ccccc3)[nH][nH]c2=O)cc1 as the molecule, how does the Potency read?
Answer: inactive

Question: For COc1ccc(CC(=O)Nc2c(C(N)=O)oc3ccccc23)cc1, which Potency is on record?
Answer: inconclusive [inhibitor, single point]

Question: For O=C(Nc1ccc2c(c1)OCO2)c1cc(C2CCCCN2C(=O)c2ccc3ccccc3c2)on1 (stereo unspecified), which Potency is on record?
Answer: active: 18.4 µM

Question: With COc1ccc(CC(N)c2csc(NC(=O)c3ccccc3OC)n2)cc1 (stereo unspecified) as the molecule, how does the Potency read?
Answer: inconclusive [inhibitor, single point]

Question: For Cc1cc(C)n2nc(C(=O)OCC(=O)c3ccccc3)nc2n1, which Potency is on record?
Answer: inconclusive [inhibitor, full curve, poor fit]

Question: With Cc1cc2oc(C(=O)N(Cc3ccccc3)C3CCS(=O)(=O)C3)cc(=O)c2cc1Cl (stereo unspecified) as the molecule, how does the Potency read?
Answer: inconclusive [inhibitor, full curve, poor fit]

Question: With Cn1c(C(=O)NC2CCCCC2)cc2c(=O)n3ccccc3nc21 as the molecule, how does the Potency read?
Answer: inconclusive [inhibitor, single point]

Question: Which Potency does the source give for CCCC(=O)OC[C@@H](OC(=O)CCC)[C@@H](OC(=O)CCC)[C@H](Cn1c2nc(=O)[nH]c(=O)c-2nc2cc(C)c(C)cc21)OC(=O)CCC here?
Answer: active: 6.68 µM

Question: Which Potency does the source give for Cc1ccccc1-n1c(C)nnc1SC(C)C(=O)NCc1ccco1 (stereo unspecified) here?
Answer: inactive

Question: With CCOC(=O)C1CCC(CN(Cc2c(Cl)cccc2Cl)S(=O)(=O)c2ccc(F)cc2)CC1 (stereo unspecified) as the molecule, how does the Potency read?
Answer: inconclusive [inhibitor, single point]

Question: For CCOc1ccc(OCc2cccc(C(=O)O)c2)cc1, which Potency is on record?
Answer: active: 14.6 µM

Question: Which Potency does the source give for CCCN1CCN(c2ncnc3scc(C4COc5ccccc5O4)c23)CC1 (stereo unspecified) here?
Answer: inconclusive [inhibitor, single point]

Question: Which Potency does the source give for COC(=O)CN(c1ccccc1)S(=O)(=O)c1ccc(F)cc1 here?
Answer: inactive

Question: With CC1(C(=O)N2CCCCC2)CCN1C(=O)Cc1ccc(-c2ccccc2)cc1 (stereo unspecified) as the molecule, how does the Potency read?
Answer: active: 14.6 µM

Question: For COc1ccccc1CCNC(=O)Cn1ccc2cc(S(=O)(=O)N3CCCCCC3)ccc21, which Potency is on record?
Answer: inconclusive [inhibitor, single point]

Question: Which Potency does the source give for CN1/C(=C\C(=O)c2ccco2)c2ccccc2CC1(C)C here?
Answer: inconclusive [inhibitor, single point]

Question: With Cc1ccc(C)c(N2CCN(C(=O)c3cc(S(=O)(=O)N4CCCC4)cn3C)CC2)c1 as the molecule, how does the Potency read?
Answer: active: 18.4 µM

Question: With Cc1ccc(NC(=O)CSc2nc3c(c(=O)[nH]2)CCC3)cc1C as the molecule, how does the Potency read?
Answer: inconclusive [inhibitor, single point]

Question: Which Potency does the source give for O=C(NCc1ccc2c(c1)OCO2)c1ccc(Cl)s1 here?
Answer: inactive

Question: Which Potency does the source give for Cc1nc2ccccc2n1C1CCN(CC(=O)Nc2ccccc2Br)CC1 here?
Answer: inconclusive [inhibitor, single point]

Question: Which Potency does the source give for Cc1ccccc1-c1noc(CSc2nnc(-c3ccncc3)n2-c2ccc(F)cc2)n1 here?
Answer: inconclusive [inhibitor, single point]

Question: For CCCCn1c(-c2ccc(C)cc2)c(C)n2c3c(=O)n(C)c(=O)n(C)c3nc12, which Potency is on record?
Answer: inconclusive [inhibitor, single point]

Question: With CCOC(=O)c1c(C)[nH]c(C(=O)OCC(=O)Nc2cc(C)c(Cl)cc2OC)c1C as the molecule, how does the Potency read?
Answer: active: 3.66 µM

Question: Which Potency does the source give for COC(=O)C1=C(C)N(Cc2ccccc2)C(=O)N[C@H]1CCc1ccccc1 here?
Answer: inactive

Question: Which Potency does the source give for O=S(=O)(NC1CCCC1)c1ccc(S(=O)(=O)N2CCc3ccccc32)cc1 here?
Answer: active: 16.4 µM

Question: For CCCC(=O)O[C@@H]1C[C@@H](C)N(C(=O)c2ccccc2)c2ccc(C)cc21, which Potency is on record?
Answer: active: 20.6 µM

Question: With CCc1ccc(OCC(=O)Nc2ccc(S(=O)(=O)N3CCCC3)cc2)c(Br)c1 as the molecule, how does the Potency read?
Answer: inconclusive [inhibitor, single point]

Question: Which Potency does the source give for CC(=O)N/C(=C\c1cccc([N+](=O)[O-])c1)C(=O)NC1CCCCC1 here?
Answer: inactive

Question: For CC(=O)Nc1ccc(NC(=O)Cn2c(CC(=O)N3CCCC3)nc3ccccc32)cc1, which Potency is on record?
Answer: inactive

Question: For COC(=O)C1CCN(Cc2ccc3c(c2)CN(C(=O)c2cc(-c4ccc(C)o4)[nH]n2)CCO3)CC1, which Potency is on record?
Answer: active: 0.082 µM

Question: With Cc1ncc(CO)c2c1Oc1nc(-c3ccccc3)nc(SCC(=O)Nc3cccc(C(F)(F)F)c3)c1C2 as the molecule, how does the Potency read?
Answer: active: 6.51 µM

Question: For COc1ccc(C(C(=O)NC2CCCCC2)N(C(=O)c2ccco2)c2ccccc2C(C)=O)cc1 (stereo unspecified), which Potency is on record?
Answer: inactive

Question: With CCCNC(=O)c1ccc(S(=O)(=O)c2ccc(OC)cc2)c([N+](=O)[O-])c1 as the molecule, how does the Potency read?
Answer: active: 5.17 µM

Question: Which activity change, negative = growth inhibition does the source give for CC(O)[C@H]1CNC(=O)C(=O)N1CC1CCCCC1 (stereo partly specified) here?
Answer: inconclusive: -30.2% [inhibitor]

Question: Which Potency does the source give for COc1ccc(C2/C(=C(\O)c3ccc4c(c3)OCCO4)C(=O)C(=O)N2CCCN(C)C)c(OC)c1 (stereo unspecified) here?
Answer: inconclusive [inhibitor, single point]

Question: For Cc1ccc(SCc2nc(-c3ccccn3)no2)cc1, which Potency is on record?
Answer: inconclusive [inhibitor, single point]

Question: For CCOc1ccc(N(CC)C(=O)CSc2n[nH]c(-c3ccccc3)n2)cc1, which Potency is on record?
Answer: inconclusive [inhibitor, partial curve]

Question: With Cn1c(-c2sccc2OCc2cccc(C(F)(F)F)c2)n[nH]c1=S as the molecule, how does the Potency read?
Answer: inconclusive [inhibitor, single point]

Question: Which Potency does the source give for Cc1cc(C(=O)N/N=C/C=C/c2ccccc2[N+](=O)[O-])c(C)o1 here?
Answer: inactive

Question: Which Potency does the source give for Fc1ccc(NC(=S)N2CCCN(c3ccc(C(F)(F)F)cn3)CC2)c(F)c1 here?
Answer: active: 16.4 µM

Question: With COc1ccc(NC(=O)NCc2ccco2)c(OC)c1 as the molecule, how does the Potency read?
Answer: inconclusive [inhibitor, single point]

Question: With O=C(COC(=O)c1ccc(O)cc1)Nc1cc(S(=O)(=O)N2CCOCC2)ccc1Cl as the molecule, how does the Potency read?
Answer: inactive

Question: With O=C(NC1CCCC1)c1ccc2c(c1)N(Cc1ccccc1F)C(=O)c1ccccc1S2 as the molecule, how does the Potency read?
Answer: inconclusive [inhibitor, single point]

Question: With COc1ccc(-c2cc(=O)n(-c3ccc([N+](=O)[O-])cc3)[nH]2)cc1 as the molecule, how does the Potency read?
Answer: inconclusive [inhibitor, single point]

Question: For Cc1oc(-c2ccc(C(=O)NCc3ccccc3)cc2)nc1CS(=O)(=O)c1ccccc1, which Potency is on record?
Answer: inactive

Question: With CC(C)N1CC(C(=O)Nc2ccc(Cl)c(Cl)c2)CC1=O (stereo unspecified) as the molecule, how does the Potency read?
Answer: inactive

Question: Which Potency does the source give for Clc1cccc(-c2nnc(SCc3nc4ccccc4[nH]3)n2Cc2ccco2)c1 here?
Answer: inconclusive [inhibitor, partial curve, poor fit]

Question: For Cc1ccc(N(CCC#N)C(=O)COC(=O)c2ccccc2SCC(=O)N2CCCC2)cc1, which Potency is on record?
Answer: inconclusive [inhibitor, single point]

Question: With Cc1cc(C)cc(N(CC(=O)Nc2cccc(C)n2)S(=O)(=O)c2c(C)noc2C)c1 as the molecule, how does the Potency read?
Answer: active: 20.6 µM

Question: Which Potency does the source give for CN(C)c1ccc(/C=N/OC(=O)Nc2ccccc2)cc1 here?
Answer: inconclusive [inhibitor, single point]

Question: Which Potency does the source give for CC1=C(C(=O)Nc2cccnc2)C(c2ccccc2)n2nc(SCc3ccccc3F)nc2N1 (stereo unspecified) here?
Answer: inconclusive [inhibitor, partial curve]

Question: With CCOc1ccccc1N(C)C(=O)CCS(=O)(=O)c1ccc2c(c1)NC(=O)C(C)S2 (stereo unspecified) as the molecule, how does the Potency read?
Answer: inconclusive [inhibitor, single point]

Question: Which Potency does the source give for O=C(Cc1ccccc1)Nc1cccc(-c2nc3cccnc3s2)c1 here?
Answer: inactive

Question: Which Potency does the source give for COc1ccc(-c2ccc3oc(-c4ccc(OC)cc4)c(C#CC4(O)CCCCC4)c3c2)cc1 here?
Answer: inconclusive [inhibitor, single point]

Question: With COC(=O)c1ccc(N2CCOCC2)c(NC(=O)c2ccc3c(c2)OCO3)c1 as the molecule, how does the Potency read?
Answer: inactive

Question: With O=C(c1ccco1)N1CCN(C(=O)N2c3ccccc3Sc3ccccc32)CC1 as the molecule, how does the Potency read?
Answer: active: 0.231 µM
